The record followed here is PMC3854969.

Protein sequences, listed by entry. Tags and fused reporters are not part of them.
UniProt Q3SXY8: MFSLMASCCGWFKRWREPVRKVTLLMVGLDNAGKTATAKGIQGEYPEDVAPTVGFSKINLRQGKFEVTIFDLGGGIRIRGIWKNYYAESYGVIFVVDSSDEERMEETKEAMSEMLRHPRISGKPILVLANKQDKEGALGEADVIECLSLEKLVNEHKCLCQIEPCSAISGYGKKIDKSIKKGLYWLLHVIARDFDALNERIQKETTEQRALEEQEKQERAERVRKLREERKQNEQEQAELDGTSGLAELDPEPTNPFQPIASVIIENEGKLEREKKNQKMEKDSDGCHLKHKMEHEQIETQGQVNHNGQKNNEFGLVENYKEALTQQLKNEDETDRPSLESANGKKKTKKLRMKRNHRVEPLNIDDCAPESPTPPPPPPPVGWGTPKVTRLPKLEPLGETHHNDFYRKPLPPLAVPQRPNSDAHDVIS

Experiment [1] addresses ARL13B-Flag (human full-length Arl13b with C-terminal Flag tag) (human) (UniProt Q3SXY8). The experiment in a line: co-IP; HEK293T cells transfected with C-terminal Flag vector with or without ARL13B; lysates (50 mM Tris-HCl pH 7.5, 100 mM NaCl, 1% NP-40, 5 mM MgCl2) on anti-Flag M2 beads; Western blot for endogenous IFT88, IFT52, INVS.
Experiment [2] has as its target GAL4-BD fused to full length ARL13B (human) (UniProt Q3SXY8). The experiment in a line: two-hybrid; GAL4-based (Hybrizap), one-on-one; GAL4-BD-ARL13B bait against GAL4-AD preys in yeast PJ69-4A; growth on media lacking His and Ade, alpha- and beta-galactosidase.

Results are given in words; binding and its absence hold for the method and conditions named. For some assays here: In cells and extracts the contact can be indirect. Some entries that bind do so weakly or less than the wild type. Sequences can lack the tags named with a protein.

B1: IFT88 (protein, UniProt Q13099 1-824)
chain: MMQNVHLAPETDEDDLYSGYNDYNPIYDIEELENDAAFQQAVRTSHGRRPPITAKISSTAVTRPIATGYGSKTSLASSIGRPMTGAIQDGVTRPMTAVRAAGFTKAALRGSAFDPLSQSRGPASPLEAKKKDSPEEKIKQLEKEVNELVEESCIANSCGDLKLALEKAKDAGRKERVLVRQREQVTTPENINLDLTYSVLFNLASQYSVNEMYAEALNTYQVIVKNKMFSNAGILKMNMGNIYLKQRNYSKAIKFYRMALDQVPSVNKQMRIKIMQNIGVTFIQAGQYSDAINSYEHIMSMAPNLKAGYNLTICYFAIGDREKMKKAFQKLITVPLEIDEDKYISPSDDPHTNLVTEAIKNDHLRQMERERKAMAEKYIMTSAKLIAPVIETSFAAGYDWCVEVVKASQYVELANDLEINKAVTYLRQKDYNQAVEILKVLEKKDSRVKSAAATNLSALYYMGKDFAQASSYADIAVNSDRYNPAALTNKGNTVFANGDYEKAAEFYKEALRNDSSCTEALYNIGLTYEKLNRLDEALDCFLKLHAILRNSAEVLYQIANIYELMENPSQAIEWLMQVVSVIPTDPQVLSKLGELYDREGDKSQAFQYYYESYRYFPCNIEVIEWLGAYYIDTQFWEKAIQYFERASLIQPTQVKWQLMVASCFRRSGNYQKALDTYKDTHRKFPENVECLRFLVRLCTDLGLKDAQEYARKLKRLEKMKEIREQRIKSGRDGSGGSRGKREGSASGDSGQNYSASSKGERLSARLRALPGTNEPYESSSNKEIDASYVDPLGPQIERPKTAAKKRIDEDDFADEELGDDLLPE
Take B1: the binding entry in experiment [1] was “binds”.

B2: IFT74 fused to GAL4 activation domain (protein, UniProt Q96LB3 1-600)
chain: MASNHKSSAARPVSRGGVGLTGRPPSGIRPLSGNIRVATAMPPGTARPGSRGCPIGTGGVLSSQIKVAHRPVTQQGLTGMKTGTKGPQRQILDKSYYLGLLRSKISELTTEVNKLQKGIEMYNQENSVYLSYEKRAETLAVEIKELQGQLADYNMLVDKLNTNTEMEEVMNDYNMLKAQNDRETQSLDVIFTERQAKEKQIRSVEEEIEQEKQATDDIIKNMSFENQVKYLEMKTTNEKLLQELDTLQQQLDSQNMKKESLEAEIAHSQVKQEAVLLHEKLYELESHRDQMIAEDKSIGSPMEEREKLLKQIKDDNQEIASMERQLTDTKEKINQFIEEIRQLDMDLEEHQGEMNQKYKELKKREEHMDTFIETFEETKNQELKRKAQIEANIVALLEHCSRNINRIEQISSITNQELKMMQDDLNFKSTEVQKSQSTAQNLTSDIQRLQLDLQKMELLESKMTEEQHSLKSKIKQMTTDLEIYNDLPALKSSGEEKIKKLHQERMILSTHRNAFKKIMEKQNIEYEALKTQLQENETHSQLTNLERKWQHLEQNNFAMKEFIATKSQESDYQPIKKNVTKQIAEYNKTIVDALHSTSGN
As for B2, the binding entry in experiment [2] is on record as “binds”.

B3: Inversin (protein, UniProt Q9Y283 1-1065)
chain: MNKSENLLFAGSSLASQVHAAAVNGDKGALQRLIVGNSALKDKEDQFGRTPLMYCVLADRLDCADALLKAGADVNKTDHSQRTALHLAAQKGNYRFMKLLLTRRANWMQKDLEEMTPLHLTTRHRSPKCLALLLKFMAPGEVDTQDKNKQTALHWSAYYNNPEHVKLLIKHDSNIGIPDVEGKIPLHWAANHKDPSAVHTVRCILDAAPTESLLNWQDYEGRTPLHFAVADGNVTVVDVLTSYESCNITSYDNLFRTPLHWAALLGHAQIVHLLLERNKSGTIPSDSQGATPLHYAAQSNFAETVKVFLKHPSVKDDSDLEGRTSFMWAAGKGSDDVLRTMLSLKSDIDINMADKYGGTALHAAALSGHVSTVKLLLENNAQVDATDVMKHTPLFRACEMGHKDVIQTLIKGGARVDLVDQDGHSLLHWAALGGNADVCQILIENKINPNVQDYAGRTPLQCAAYGGYINCMAVLMENNADPNIQDKEGRTALHWSCNNGYLDAIKLLLDFAAFPNQMENNEERYTPLDYALLGERHEVIQFMLEHGALSIAAIQDIAAFKIQAVYKGYKVRKAFRDRKNLLMKHEQLRKDAAAKKREEENKRKEAEQQKGRRSPDSCRPQALPCLPSTQDVPSRQSRAPSKQPPAGNVAQGPEPRDSRGSPGGSLGGALQKEQHVSSDLQGTNSRRPNETAREHSKGQSACVHFRPNEGSDGSRHPGVPSVEKSRGETAGDERCAKGKGFVKQPSCIRVAGPDEKGEDSRRAAASLPPHDSHWKPSRRHDTEPKAKCAPQKRRTQELRGGRCSPAGSSRPGSARGEAVHAGQNPPHHRTPRNKVTQAKLTGGLYSHLPQSTEELRSGARRLETSTLSEDFQVSKETDPAPGPLSGQSVNIDLLPVELRLQIIQRERRRKELFRKKNKAAAVIQRAWRSYQLRKHLSHLRHMKQLGAGDVDRWRQESTALLLQVWRKELELKFPQTTAVSKAPKSPSKGTSGTKSTKHSVLKQIYGCSHEGKIHHPTRSVKASSVLRLNSVSNLQCIHLLENSGRSKNFSYNLQSATQPKNKTKP
Turning to B3, the binding entry in experiment [1] was “no binding”.

B4: intraflagellar transport 52 (protein, UniProt Q9Y366 1-437)
chain: MEKELRSTILFNAYKKEIFTTNNGYKSMQKKLRSNWKIQSLKDEITSEKLNGVKLWITAGPREKFTAAEFEILKKYLDTGGDVFVMLGEGGESRFDTNINFLLEEYGIMVNNDAVVRNVYHKYFHPKEALVSSGVLNREISRAAGKAVPGIIDEESSGNNAQALTFVYPFGATLSVMKPAVAVLSTGSVCFPLNRPILAFYHSKNQGGKLAVLGSCHMFSDQYLDKEENSKIMDVVFQWLTTGDIHLNQIDAEDPEISDYMMLPYTATLSKRNRECLQESDEIPRDFTTLFDLSIFQLDTTSFHSVIEAHEQLNVKHEPLQLIQPQFETPLPTLQPAVFPPSFRELPPPPLELFDLDETFSSEKARLAQITNKCTEEDLEFYVRKCGDILGVTSKLPKDQQDAKHILEHVFFQVVEFKKLNQEHDIDTSETAFQNNF
Turning to B4, in experiment [1], the binding entry is “binds”.

B5: IFT46 fused to GAL4 activation domain (protein, UniProt Q9NQC8 1-304)
chain: MADNSSDECEEENNKEKKKTSQLTPQRGFSENEDDDDDDDDSSETDSDSDDDDEEHGAPLEGAYDPADYEHLPVSAEIKELFQYISRYTPQLIDLDHKLKPFIPDFIPAVGDIDAFLKVPRPDGKPDNLGLLVLDEPSTKQSDPTVLSLWLTENSKQHNITQHMKVKSLEDAEKNPKAIDTWIESISELHRSKPPATVHYTRPMPDIDTLMQEWSPEFEELLGKVSLPTAEIDCSLAEYIDMICAILDIPVYKSRIQSLHLLFSLYSEFKNSQHFKALAEGKKAFTPSSNSTSQAGDMETLTFS
With B5, in experiment [2], the binding entry is “binds”.
